About 60 (0.1%) of roughly 46,000 compounds were called active. Not shown: some 3% with an inconclusive outcome. Calls come from the whole dose curve; as a rule, active = well fitted inhibition curve with a large enough effect; inconclusive = small, poorly fitted or top-dose-only effect; inactive = no such curve, though single readings can be large or run the other way. Some of the results follow.
Test: Primary qHTS assay for Inhibitors of ovarian cancer metastasis using an organotypic tumor microenvironment (TME) model.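 For Potency: count of GFP cancer cells still attached after washing and fixation.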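 For activity change, negative = inhibition: plate controls were DMSO wells for no effect and tomatine positive control wells for full effect.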 Note: nearly all actives have a fitted effect of over 65% in size.
Conditions: SKOV3ip1-GFP adhesion/invasion on 3D omental model, fluorescence; series mostly up to 45.8 µM; activity change, negative = inhibition: at the top concentration
Summary of the method: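 qHTS, 4-pt dose (0.36-46 umol/L); SKOV3ip1-GFP, 1,200 cells/well, no FBS; primary omental fibroblast/mesothelial co-culture 48 h pre-grown; 2 h RT + 16 h 37 C; PBS wash, 4% PFA; GFP count 488/509 nm.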
Potency is the fitted concentration of half-maximal effect.

outcome, inactive:
O=C(Nc1nnc(S(=O)(=O)N2CCCC2)s1)c1ccc(F)cc1
CCCCOc1ccccc1NC(=O)Cn1c(-c2cncs2)nc2ccccc21
CCCCCn1c(=O)[nH]c2cc(C(=O)N3CCN(c4ccccc4F)CC3)ccc2c1=O
CCOC(=O)c1[nH]c2ccccc2c1NC(=O)c1ccc(OCC)cc1
Cc1c(C(=O)NCc2ccc(F)cc2)sc2nc(-c3ccccc3)cn12
COc1ccccc1CNC(=O)c1cccc(NC(=O)N2CCSc3ncccc32)c1
Cc1ccc(-n2ncc(C(=O)NCCCN3CCN(C)CC3)c2C2CCN(C(=O)OC(C)(C)C)CC2)cc1
Cc1cc(C)c(NC(=O)CN2C(=O)CCn3nc(-c4cccn4C)cc32)c(C)c1
CCc1ccc2c(c1)c(=O)c(C(=O)c1ccccc1)cn2CC(=O)Nc1ccc(C)c(Cl)c1
Cc1cc(C)c2c(n1)SCC(=O)N2CC(=O)Nc1cccc(C)c1C
O=C(CSc1ncc2c(n1)-c1cc(Cl)ccc1N(Cc1ccccc1)S2(=O)=O)NCc1ccccc1
CCc1ccc(C(=O)c2cn(CC(=O)Nc3ccc(OC)cc3)c3cc4c(cc3c2=O)OCCO4)cc1
Cc1cc(SCC(=O)Nc2ccc(C(F)(F)F)cc2)nc(=O)[nH]1
COc1ccc(C(=O)Nc2ccc3nc(N4CCCCC4)cc(C)c3c2)cc1OC
CCOc1ccc(S(=O)(=O)NCCc2csc3nc(-c4cccc(C)c4)nn23)cc1
COc1cccc(C(=O)Nc2ccc(C(=O)OCc3cc(=O)n4cc(C)sc4n3)cc2)c1
Cc1nc2c(C(=O)NCCc3ccccc3)c[nH]n2c(=O)c1Cc1ccccc1F
COc1cc(NC(=O)NCCn2nnc3cc(S(=O)(=O)N(C)C)ccc32)cc(OC)c1OC
O=C(Nc1ccc(Cl)cc1Cl)c1cc(S(=O)(=O)N2CCC3(CC2)OCCO3)ccc1F
CCN(CCCNC(=O)CSc1cc(=O)n(C)c2ccccc12)c1ccccc1
O=C(NCc1cccc(F)c1)C1CCN(c2nc3ccccc3nc2C(F)(F)F)CC1

Activity change, negative = inhibition, inactive:
COc1ccc(OC)c(-n2cnc3cc(C(=O)NC4CCCC4)ccc32)c1 2.44%
Cc1cccc(-c2nc(N3CCN(c4ccc(F)cc4)CC3)c3ccccc3n2)c1 -1.88%
CCOC(=O)c1cccc(NC(=O)c2cc3c(=O)n(Cc4cccnc4)ccc3nc2C)c1 3.41%
COc1ccc(Nc2nc3c(S(=O)(=O)c4ccccc4)nnn3c3ccc(Cl)cc23)cc1OC -2.93%
CCCOc1ccc(NC(=O)CC2C(=O)N(c3cccc(C)c3)C(=O)N2CCc2ccncc2)cc1 (centres undefined) 12.3%
CCOc1ccc(-c2cc(C(=O)NCc3ccc(OC)cc3)c3c(-c4ccc(F)cc4)[nH]nc3n2)cc1 8.39%
CCN1CCN(CCCNC(=O)c2cnn(-c3ccc(C)cc3)c2C2CCN(C(=O)OC(C)(C)C)CC2)CC1 -6.6%
Cc1ccc(NC(=O)c2cc(-c3cccs3)on2)cc1C 3.37%
Cc1ccc(-n2ncc3c(NCCCn4ccnc4)ncnc32)cc1 -0.296%
COCCCCC(=NOCCN)c1ccc(C(F)(F)F)cc1 -17.2%
c1csc(-c2nc3ccccn3c2Nc2ccc3c(c2)OCCO3)c1 -2.73%
COc1cccc(-n2c(SCC(=O)Nc3ccc(F)cc3F)nc3c([nH]c4ccccc43)c2=O)c1 -0.328%
COc1nccc(-c2c(-c3ccc(F)cc3)ncn2C2CCC(O)CC2)n1 (centres undefined) 8.26%
COc1ccc(S(=O)(=O)NCCS(=O)(=O)N2CCN(c3ccccc3F)CC2)cc1 -6.14%
Oc1c(C(c2ccc(Cl)cc2)N2CCCC2)sc2nc(-c3ccco3)nn12 (centres undefined) -2.16%
CCOc1ccccc1C(=O)NCC(c1ccc(N(C)C)cc1)N1CCc2ccccc21 (centres undefined) 24.9%
COC(=O)c1c(-c2ccc(Cl)cc2)noc1N1CCN(c2cccc(OC)c2)CC1 -23.2%
COc1ccc(CCNC(=O)c2ccc(Cn3c(=O)c4ccccc4n(Cc4ccccc4Cl)c3=O)cc2)cc1OC -28.3%
Cc1nnc(N2C(=O)c3oc4ccccc4c(=O)c3C2c2ccc(F)cc2)s1 (centres undefined) 10.2%
CCOc1cc(-c2ccc(OC(=O)c3ccc(Cl)cc3)c(OC)c2)cc(=O)c2c(C)oc(C)c12 -5.45%
CC(=O)c1ccc(N2CCN(c3ncnc4onc(-c5ccc(Cl)cc5)c34)CC2)cc1 9.22%
CCCCOC(=O)c1ccc(NC(=O)CSc2nc3c(c(=O)[nH]2)CCC3)cc1 8.44%
COc1cc(-c2nc3cccc(C)n3c2Nc2ccc3c(c2)OCCO3)ccc1O 1.19%
Cc1ccccc1CN1c2ccccc2-c2nc(SCC(=O)Nc3cc(F)ccc3F)ncc2S1(=O)=O -5.09%
Cc1cccc(NC(=O)CN(C)S(=O)(=O)c2cnc[nH]2)c1C 4.61%
O=C(Cc1ccc(NC(=O)N2CCCCc3ccccc32)cc1)Nc1ccccc1Br -6.48%
Cc1ccc(Cl)cc1NC(=O)c1cc(-c2ccc3c(c2)OCCO3)on1 36.1%
Cc1cc(C)c(NC(=O)CSc2cn(CC(=O)N3CCOCC3)c3ccccc23)c(C)c1 -6.28%
CCCCNc1cc(N2CCN(C3CCCCC3)CC2)c2noc3c2c1C(=O)c1ccccc1-3 25.2%
CCCCC(=O)N1CCN(c2nc3c(C)c(C)ccc3s2)CC1 0.523%
CCc1ccc2c(c1)c(=O)c(C(=O)c1ccc(C)cc1)cn2CC(=O)Nc1ccccc1C 27.7%
CCc1ccc(Cn2c(CNS(=O)(=O)c3ccc4c(c3)CCCC4)nc3cccnc32)cc1 -0.346%
CCN1CCN(C(=O)c2ccc3c(c2)N(Cc2ccc(Cl)cc2)C(=O)c2ccccc2S3=O)CC1 (centres undefined) -7.77%
CCOc1ccc(NC(=O)c2oc3ccccc3c2NC(=O)Cc2cccs2)cc1 -0.922%
Cc1oc2ncn(CC(C)C)c(=O)c2c1C(=O)NCCCN1CCCCC1C (centres undefined) 2.42%
COc1cccc(Cn2c(=O)n(CC3CCC(C(=O)N4CCOCC4)CC3)c(=O)c3sccc32)c1 (centres undefined) 6.87%
Cc1ccc(NC(=O)CSc2nc3nccnc3c(=O)n2CCc2c[nH]c3ccccc23)c(C)c1 -1.53%
COc1ccc(-c2c(C)nn3c(-c4ccccc4)cc(-c4ccccc4)nc23)cc1 -10.5%
CCc1ccccc1NC(=O)c1ncoc1-c1ccco1 0.319%
COc1ccc(-c2nnc(SCC(=O)NCCc3ccccc3)nc2-c2ccc(OC)cc2)cc1 0.319%
Cc1ccc(-c2nnn3c2nc(N2CCC(C)CC2)c2ccccc23)cc1 -1.71%
CCOc1ccc(NC(=O)c2ncn(-c3ccccc3)n2)cc1 7.13%
O=C1CSC2(C(=O)N(Cc3c(F)cccc3Cl)c3ccccc32)N1c1ccc(F)c(F)c1 (centres undefined) -8.48%
Cc1ccc(OCCSc2nc3ccccc3n2CC(=O)NC(C)C)cc1 -4.25%
O=C(O)CCCn1cc(NC(=O)COc2ccccc2F)cn1 -24.1%
O=C(Nc1ccc(OC(F)(F)F)cc1)C(NS(=O)(=O)c1cccc2nsnc12)c1ccccc1 (centres undefined) 6.17%
CCCCOC(=O)c1ccc(NC(=O)c2cc(=O)c3ccccc3o2)cc1 3.49%
Cc1ccc(C)c(N2CCN(C(=O)c3cccn4c(=O)c5ccccc5nc34)CC2)c1 -23.3%
COCCCNC(=O)C1CCN(C(=O)c2cc3sccc3n2Cc2ccc(Cl)cc2)CC1 -16.2%
Cc1cccc(CSc2ccc3nnc(CCNS(=O)(=O)c4ccccc4)n3n2)c1 -0.55%
COc1ccc(CCNC(=O)c2ccc(CSCc3ccc(C)cc3)o2)cc1OC 1.93%
Cc1ccc(C(=O)Nc2nnc(S(=O)(=O)N3CCCc4ccccc43)s2)cc1 -21.2%
COc1cc(NS(=O)(=O)c2cc3c(cc2C)n(C)c(=O)c(=O)n3C)cc(OC)c1 -3.38%
O=C(Nc1nnc(S(=O)(=O)N2CCOCC2)s1)c1cccc(Br)c1 -2.88%
O=S(=O)(c1ccc(Cl)cc1)N1CCC(c2ccncc2)CC1 3.68%
Cc1nc2ccc(S(=O)(=O)NCC(=O)Nc3ccc(C)c(Cl)c3)cc2s1 -4.44%
Cc1cc(C)cc(NC(=O)CSc2nc3c(cnn3-c3ccc(F)cc3)c(=O)[nH]2)c1 4.92%
COc1ccc(-c2nc3c4ccccc4n(CC(=O)Nc4ccc(C(C)=O)cc4)c(=O)n3n2)cc1 -9.37%
Cc1ccccc1C(=O)NC1(C(F)(F)F)C(=O)Nc2c1c(=O)[nH]c(=O)n2CCc1ccccc1 (centres undefined) 16%
CCC(Sc1ccc2nnc(CCNS(=O)(=O)c3ccc(OC)cc3)n2n1)C(=O)OC (centres undefined) -8.33%
Cc1ccc(-c2cc3ncc4c(n3n2)-c2ccccc2OC4)cc1 -3.22%
COc1cc(NC(=O)c2cc3cc4ccc(OC)c(Cl)c4nc3s2)cc(OC)c1 -5.88%
CCOCCCNC(=O)c1ccc2c(c1)NC(=O)C(CS(=O)(=O)Cc1ccc(F)cc1Cl)N2 (centres undefined) -16.5%
Cc1cc2[nH]c(=O)c(=O)[nH]c2cc1S(=O)(=O)NCc1ccc(F)cc1 -1.44%
Cc1cc(C)n(-c2nc3ccccc3nc2Nc2ccc(C(C)C)cc2)n1 -5.19%
Cc1ccc(C2=NN(CC(=O)NCCCN(CC(C)C)CC(C)C)C(=O)CC2)cc1 -8.52%
CCCCc1nn2c(=O)cc(COC(=O)c3cccc(NC(=O)COc4ccccc4)c3)nc2s1 -3.96%
O=C(NC1CCCCCC1)C1CCN(C(=O)N2CCOc3ccc(Cl)cc32)CC1 -0.929%
Cc1cc(C)c(NC(=O)C(C)n2c(=O)cc(C)c3c(C)nn(-c4ccccc4)c32)c(C)c1 (centres undefined) 2.3%
CCC(=O)OCC(=O)[C@@]1(OC(=O)CC)[C@@H](C)C[C@@H]2[C@H]3CCC4=CC(=O)C=C[C@]4(C)[C@@]3(F)[C@@H](O)C[C@@]21C -1.58%
CCOc1cccc(NC(=O)C2CC(=O)N(C)C(=Nc3cccc(OC)c3)S2)c1 (centres undefined) 2.98%
COCCNC(=O)CCn1c(=O)c2cc(OC)c(OC)cc2n(CC(=O)Nc2ccc(F)c(Cl)c2)c1=O 0.841%

Potency, active:
Cc1cccc(C)c1OCC(=O)Nc1c(C(=O)c2ccccc2)oc2ccccc12 10 µM

From PubChem BioAssay AID1963576 (National Center for Advancing Translational Sciences (NCATS), 2024)
